The supplement of paper PMC8728848
The list shows a part of the results.

How the values were obtained:
Assay in all cases: glycan array binding signal (z-score within array); higher = stronger binding
Settings in all cases: glycan notation: IUPAC condensed, linker removed
[1] = target: Gal(b1-3)[Fuc(a1-4)]GlcNAc(b1-6)GalNAc
Procedure, shortened: (§1)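 The Consortium for Functional Glycomics database supplied 3228 glycan arrays, of which those lacking an available protein sequence were dropped. The binding signal, a within-array Z-score, was averaged across arrays of the same protein sequence and across linkers. Negative scores can be read as non-binding.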

[2] = target: Gal(b1-3)[GlcNAc(b1-6)]GalNAc
Procedure, shortened: as §1

[3] = target: Gal(b1-3)[Neu5Ac(a2-6)]GalNAc
Procedure, shortened: as §1

[4] = target: Gal(b1-3)[Neu5Ac(a2-6)]GlcNAc(b1-4)Gal(b1-4)Glc
Procedure, shortened: as §1

[5] = target: Gal(b1-3)[Neu5Ac(b2-6)]GalNAc
Procedure, shortened: as §1

Gal(b1-4)Gal = target: Gal(b1-4)Gal
Procedure, shortened: as §1

[6] = target: Gal(b1-4)GalNAc(a1-3)[Fuc(a1-2)]Gal(b1-4)GlcNAc
Procedure, shortened: as §1

[7] = target: Gal(b1-4)GalNAc(b1-3)[Fuc(a1-2)]Gal(b1-4)GlcNAc
Procedure, shortened: as §1

Gal(b1-4)Glc = target: Gal(b1-4)Glc
Procedure, shortened: as §1

Gal(b1-4)Glc6S = target: Gal(b1-4)Glc6S
Procedure, shortened: as §1

Gal(b1-4)GlcNAc = target: Gal(b1-4)GlcNAc
Procedure, shortened: as §1

[8] = target: Gal(b1-4)GlcNAc(a1-6)Gal(b1-4)GlcNAc
Procedure, shortened: as §1

Gal(b1-4)GlcNAc(b1-2)Man = target: Gal(b1-4)GlcNAc(b1-2)Man
Procedure, shortened: as §1

[9] = target: Gal(b1-4)GlcNAc(b1-2)Man(a1-3)Man(b1-4)GlcNAc(b1-4)GlcNAc
Procedure, shortened: as §1

[10] = target: Gal(b1-4)GlcNAc(b1-2)Man(a1-3)[Gal(b1-4)GlcNAc(b1-2)Man(a1-6)]Man(b1-4)GlcNAc(b1-4)GlcNAc
Procedure, shortened: as §1

[11] = target: Gal(b1-4)GlcNAc(b1-2)Man(a1-3)[Gal(b1-4)GlcNAc(b1-2)Man(a1-6)]Man(b1-4)GlcNAc(b1-4)[Fuc(a1-6)]GlcNAc
Procedure, shortened: as §1

[12] = target: Gal(b1-4)GlcNAc(b1-2)Man(a1-3)[Gal(b1-4)GlcNAc(b1-2)Man(a1-6)][Gal(b1-4)GlcNAc(b1-4)]Man(b1-4)GlcNAc(b1-4)[Fuc(a1-6)]GlcNAc
Procedure, shortened: as §1

[13] = target: Gal(b1-4)GlcNAc(b1-2)Man(a1-3)[Gal(b1-4)GlcNAc(b1-2)Man(a1-6)][GlcNAc(b1-4)]Man(b1-4)GlcNAc(b1-4)[Fuc(a1-6)]GlcNAc
Procedure, shortened: as §1

[14] = target: Gal(b1-4)GlcNAc(b1-2)Man(a1-3)[GlcNAc(b1-2)Man(a1-6)]Man(b1-4)GlcNAc(b1-4)GlcNAc
Procedure, shortened: as §1

[15] = target: Gal(b1-4)GlcNAc(b1-2)Man(a1-3)[GlcNAc(b1-4)][Gal(b1-4)GlcNAc(b1-2)Man(a1-6)]Man(b1-4)GlcNAc(b1-4)GlcNAc
Procedure, shortened: as §1

[16] = target: Gal(b1-4)GlcNAc(b1-2)Man(a1-3)[Man(a1-6)]Man(b1-4)GlcNAc(b1-4)GlcNAc
Procedure, shortened: as §1

[17] = target: Gal(b1-4)GlcNAc(b1-2)Man(a1-6)Man(b1-4)GlcNAc(b1-4)GlcNAc
Procedure, shortened: as §1

[18] = target: Gal(b1-4)GlcNAc(b1-2)Man(a1-6)[GlcNAc(b1-2)Man(a1-3)]Man(b1-4)GlcNAc(b1-4)GlcNAc
Procedure, shortened: as §1

[19] = target: Gal(b1-4)GlcNAc(b1-2)Man(a1-6)[Man(a1-3)]Man(b1-4)GlcNAc(b1-4)GlcNAc
Procedure, shortened: as §1

[20] = target: Gal(b1-4)GlcNAc(b1-2)[Gal(b1-4)GlcNAc(b1-4)]Man(a1-3)[Gal(b1-4)GlcNAc(b1-2)Man(a1-6)]Man(b1-4)GlcNAc(b1-4)GlcNAc
Procedure, shortened: as §1

[21] = target: Gal(b1-4)GlcNAc(b1-2)[Gal(b1-4)GlcNAc(b1-4)]Man(a1-3)[Gal(b1-4)GlcNAc(b1-2)[Gal(b1-4)GlcNAc(b1-6)]Man(a1-6)]Man(b1-4)GlcNAc(b1-4)GlcNAc
Procedure, shortened: as §1

[22] = target: Gal(b1-4)GlcNAc(b1-2)[Gal(b1-4)GlcNAc(b1-4)]Man(a1-3)[GlcNAc(b1-4)][Gal(b1-4)GlcNAc(b1-2)Man(a1-6)]Man(b1-4)GlcNAc(b1-4)GlcNAc
Procedure, shortened: as §1

[23] = target: Gal(b1-4)GlcNAc(b1-2)[Gal(b1-4)GlcNAc(b1-4)]Man(a1-3)[GlcNAc(b1-4)][Gal(b1-4)GlcNAc(b1-2)[Gal(b1-4)GlcNAc(b1-6)]Man(a1-6)]Man(b1-4)GlcNAc(b1-4)GlcNAc
Procedure, shortened: as §1

[24] = target: Gal(b1-4)GlcNAc(b1-2)[Gal(b1-4)GlcNAc(b1-6)]Man(a1-6)[Gal(b1-4)GlcNAc(b1-2)Man(a1-3)]Man(b1-4)GlcNAc(b1-4)GlcNAc
Procedure, shortened: as §1

[25] = target: Gal(b1-4)GlcNAc(b1-2)[Gal(b1-4)GlcNAc(b1-6)]Man(a1-6)[Gal(b1-4)GlcNAc(b1-2)Man(a1-3)]Man(b1-4)GlcNAc(b1-4)[Fuc(a1-6)]GlcNAc
Procedure, shortened: as §1

[26] = target: Gal(b1-4)GlcNAc(b1-2)[Gal(b1-4)GlcNAc(b1-6)]Man(a1-6)[GlcNAc(b1-4)][Gal(b1-4)GlcNAc(b1-2)Man(a1-3)]Man(b1-4)GlcNAc(b1-4)GlcNAc
Procedure, shortened: as §1

[27] = target: Gal(b1-4)GlcNAc(b1-2)[Gal(b1-4)GlcNAc(b1-6)]Man(a1-6)[GlcNAc(b1-4)][Gal(b1-4)GlcNAc(b1-2)[Gal(b1-4)GlcNAc(b1-4)]Man(a1-3)]Man(b1-4)GlcNAc(b1-4)[Fuc(a1-6)]GlcNAc
Procedure, shortened: as §1

[28] = target: Gal(b1-4)GlcNAc(b1-3)Gal(b1-3)GalNAc
Procedure, shortened: as §1

[29] = target: Gal(b1-4)GlcNAc(b1-3)Gal(b1-3)GlcNAc
Procedure, shortened: as §1

[30] = target: Gal(b1-4)GlcNAc(b1-3)Gal(b1-4)Glc
Procedure, shortened: as §1

[31] = target: Gal(b1-4)GlcNAc(b1-3)Gal(b1-4)GlcNAc
Procedure, shortened: as §1

[32] = target: Gal(b1-4)GlcNAc(b1-3)Gal(b1-4)GlcNAc(b1-2)Man(a1-3)[Gal(b1-4)GlcNAc(b1-3)Gal(b1-4)GlcNAc(b1-2)Man(a1-6)]Man(b1-4)GlcNAc(b1-4)GlcNAc
Procedure, shortened: as §1

[33] = target: Gal(b1-4)GlcNAc(b1-3)Gal(b1-4)GlcNAc(b1-2)Man(a1-3)[Gal(b1-4)GlcNAc(b1-3)Gal(b1-4)GlcNAc(b1-2)Man(a1-6)]Man(b1-4)GlcNAc(b1-4)[Fuc(a1-6)]GlcNAc
Procedure, shortened: as §1

B1: Epa3to1 (Candida glabrata) (protein)
chain: MGSSHHHHHHSSGLVPRGSHMKRELSSQNPFGYPIGCSPQDVAIIPGLTMELYSYPIVSGTPPNCYDASYVDPEYPRTGYLKRKMVGKSTGVTGNLNYKYSVEKACMVKYGNLPAGYNYNEPLTVSNFTMILYGYFKAQTTGLHTFFVNADDLLYINFGAGNAFDCCKREDSKTKLGEYVAYDIWHVDSSKNKVSLFLEKDLYYPIRMFFNNREYDSSLDLSFSVNGATDQISDFSGYLYSVPDQPDTCPAHIGYDTTCR
In the case of B1, the “glycan array binding signal (z-score)” value [1] is reported as -0.591, the “glycan array binding signal (z-score)” value [2] is reported as 0.879 and the “glycan array binding signal (z-score)” value [3] is reported as 5.48. For the same binder, the “glycan array binding signal (z-score)” value [4] was -0.261, the “glycan array binding signal (z-score)” value [5] was 0.919 and the “glycan array binding signal (z-score)” value (Gal(b1-4)Gal) was 0.053. The “glycan array binding signal (z-score)” value [6] was -0.965, the “glycan array binding signal (z-score)” value [7] was 0.637 and the “glycan array binding signal (z-score)” value (Gal(b1-4)Glc) was 0.097. For the same binder, the “glycan array binding signal (z-score)” value (Gal(b1-4)Glc6S) was 0.529, the “glycan array binding signal (z-score)” value (Gal(b1-4)GlcNAc) was -0.071 and the “glycan array binding signal (z-score)” value [8] was -0.042. For the same binder, the “glycan array binding signal (z-score)” value (Gal(b1-4)GlcNAc(b1-2)Man) was -0.775, the “glycan array binding signal (z-score)” value [9] was 0.163 and the “glycan array binding signal (z-score)” value [10] was -0.402. The “glycan array binding signal (z-score)” value [11] was 0.104, the “glycan array binding signal (z-score)” value [12] was -0.803 and the “glycan array binding signal (z-score)” value [13] was -0.745. For the same binder, the “glycan array binding signal (z-score)” value [14] was -0.907, the “glycan array binding signal (z-score)” value [15] was -0.291 and the “glycan array binding signal (z-score)” value [16] was 3.23. For the same binder, the “glycan array binding signal (z-score)” value [17] was 0.027, the “glycan array binding signal (z-score)” value [18] was -0.335 and the “glycan array binding signal (z-score)” value [19] was 0.217. For the same binder, the “glycan array binding signal (z-score)” value [20] was -1.26, the “glycan array binding signal (z-score)” value [21] was -0.07 and the “glycan array binding signal (z-score)” value [22] was 0.229. The “glycan array binding signal (z-score)” value [23] was 0.144, the “glycan array binding signal (z-score)” value [24] was -0.126 and the “glycan array binding signal (z-score)” value [25] was 0.071. The “glycan array binding signal (z-score)” value [26] was -1.04, the “glycan array binding signal (z-score)” value [27] was -0.217 and the “glycan array binding signal (z-score)” value [28] was 0.387. The “glycan array binding signal (z-score)” value [29] was -0.417, the “glycan array binding signal (z-score)” value [30] was 0.271 and the “glycan array binding signal (z-score)” value [31] was -0.741. For the same binder, the “glycan array binding signal (z-score)” value [32] was -0.256 and the “glycan array binding signal (z-score)” value [33] was -0.44.
